Test results taken from the supplement of paper PMC12217912.
This is one part of the list. The full chains were built here from the parent and the listed change. Inactive controls read about 0.05.

B1: TEV protease; numbered along this chain (parent)
chain: MGESLFKGPRDYNPISSSICHLTNESDGHTTSLYGIGFGPFIITNKHLFRRNNGTLVVQSLHGVFKVKDTTTLQQHLVDGRDMIIIRMPKDFPPFPQKLKFREPQREERICLVTTNFQTKSMSSMVSDTSCTFPSGDGIFWKHWIQTKDGQCGSPLVSTRDGFIVGIHSASNFTNTNNYFTSVPKNFMELLTNQEAQQWVSGWRLNADSVLWGGHKVFMVKPEEPFQPVKEATQL

Variants of: B1
Assay: raw area under fraction-flipped curve 0-4 h after induction (AUC4h, not background-subtracted), DNA-recorder readout of cleavage of the substrate (dimensionless); higher = more cleavage of the substrate by the protease variant
Conditions: temperature: 34 °C; time window: 0-4 h after rhamnose induction
Procedure: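 In vivo DNA recorder in E. coli TOP10(DE3) ΔrhaA at 34 °C. Each TEVp single-site mutant (parent TEVp 0) is paired with a single-site variant of the 7-mer TEVs (canonical ENLYFQ|S). The substrate sits between flexible linkers in a Bxb1-sfGFP-TEVs-SsrA fusion, so cleavage stabilises Bxb1 and speeds flipping of a recombination array, read by NGS. The value is the raw area under the fraction-flipped curve over 0-4 h after rhamnose induction (AUC4h), with ≥20 reads per time point. It is not background-subtracted; inactive controls average about 0.047.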
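Further: Bxb1 expression induced with 0.2% (w/v) L-rhamnose at OD600 near 0.5, cultures sampled hourly, flipped fraction per protease–substrate barcode pair counted by paired-end Illumina sequencing.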

Row | Variant | area with substrate ENLYFAS | area with substrate ENLYFCS | area with substrate ENLYFDS | area with substrate ENLYFFS | area with substrate ENLYFHS | area with substrate ENLYFIS | area with substrate ENLYFKS | area with substrate ENLYFMS | area with substrate ENLYFPS | area with substrate ENLYFSS | area with substrate ENLYFTS | area with substrate ENLYFVS | area with substrate ENLYFWS | area with substrate ENLYFYS | area with substrate ENLYFES | area with substrate ENLYFGS | area with substrate ENLYFNS | area with substrate ENLYFRS | area with substrate ENLYFLS
1 | R10C | 0.049 | 0.0577 | 0.0514 | 0.0628 | 0.065 | 0.0512 | 0.0524 | 0.0691 | 0.0657 | 0.0245 | 0.0528 | 0.0398 | 0.0524 | 0.0524 |  |  |  |  | 
2 | R10V | 0.0557 | 0.0693 | 0.0676 |  |  | 0.0583 | 0.0879 | 0.066 | 0.0642 | 0.0576 | 0.0708 | 0.0687 | 0.0561 | 0.0557 | 0.0648 | 0.0564 | 0.062 |  | 
3 | R10G | 0.0532 | 0.0585 |  | 0.0664 | 0.031 | 0.0563 | 0.071 | 0.0652 | 0.0621 | 0.0586 | 0.0622 | 0.0429 | 0.0551 | 0.0636 | 0.0596 |  | 0.0562 | 0.0612 | 
4 | D11L | 0.0586 | 0.0622 | 0.0636 | 0.0721 | 0.0581 | 0.0611 | 0.0624 | 0.0583 | 0.0622 | 0.0639 | 0.0706 | 0.0593 | 0.0589 | 0.0595 | 0.0619 | 0.0639 | 0.0669 |  | 0.0597
5 | D11A | 0.0641 | 0.0677 | 0.0602 | 0.073 | 0.0774 | 0.0608 | 0.0712 | 0.0645 | 0.0553 | 0.0608 |  | 0.0628 | 0.063 | 0.0561 | 0.0969 |  | 0.0547 |  | 0.0658
6 | D11Q | 0.0587 | 0.0606 |  | 0.0382 | 0.058 | 0.0584 | 0.0702 | 0.0675 | 0.0544 | 0.052 | 0.0749 | 0.0457 |  | 0.0602 | 0.0503 |  | 0.0709 | 0.0585 | 0.0578
7 | C20R | 0.0368 | 0.0408 |  | 0.0596 | 0.0469 | 0.0427 | 0.0435 | 0.0481 | 0.0549 | 0.0418 | 0.0423 |  | 0.0311 | 0.0409 | 0.0405 | 0.0499 | 0.0515 | 0.0484 | 
8 | C20M | 0.056 | 0.0558 | 0.0479 | 0.0785 | 0.0726 | 0.0468 |  | 0.0686 | 0.0497 | 0.06 | 0.0674 | 0.0587 |  | 0.0135 | 0.0564 |  |  |  | 
9 | C20F | 0.0475 | 0.0373 |  | 0.0378 | 0.0355 |  | 0.0659 | 0.0459 | 0.0494 | 0.0916 |  | 0.0461 | 0.0499 | 0.0595 | 0.0542 | 0.0667 | 0.0297 | 0.0528 | 0.0655
10 | G28C | 0.0362 | 0.0618 | 0.0503 | 0.0649 |  | 0.0546 | 0.0545 | 0.0538 | 0.0453 | 0.0627 | 0.0565 | 0.0509 | 0.052 |  | 0.0597 |  | 0.0528 | 0.0642 | 0.0602
11 | T23S | 0.0482 | 0.0664 | 0.0556 | 0.0789 | 0.0352 | 0.0552 | 0.0553 | 0.0741 | 0.0584 | 0.0786 | 0.0575 | 0.0628 |  | 0.0642 | 0.0625 | 0.0394 | 0.0726 |  | 0.0533
